Reference: PubChem BioAssay AID1508623 (National Center for Advancing Translational Sciences (NCATS), 2021)
Screen size: about 48,000 compounds; about 450 (0.94%) were called active. Inconclusive results (about 19%) are left out. The call rests on the fitted dose curve; in most records, active means well fitted inhibition curve with a large enough effect; inconclusive means small, poorly fitted or top-dose-only effect; inactive means no such curve, though single readings can be large or run the other way. The list shows a part of the results.

test: Primary qHTS for Identification of Small Molecule Inhibitors of Huntingtin Promoter Activity; details: HEK293 HTT promoter firefly luciferase reporter (activity 0% = vehicle and -100% = no light), 24 h; series mostly up to 57.5 µM; activity change, negative = inhibition: at the top concentration; further: nearly all actives have a fitted effect of over 50% in size
Procedure, shortened: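 Firefly luciferase readout (Dual-Glo, 10 min RT) after 24 h, 37 °C compound exposure (final up to 57.5 uM) of HEK293 reporter cells cultured 24 h beforehand; PTC124 at 50 uM final as control inhibitor; activity scaled vehicle 0%, zero RLU -100%.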

| Structure (SMILES) | activity change, negative = inhibition |
| --- | --- |
| CCOC(=O)N1CCc2c(sc3c2c(=O)n(-c2ccc(CC)cc2)c(=O)n3C)C1 | inactive: 1.63% |
| Cc1ccccc1OCC(=O)N1CCC(c2nc3ccccc3s2)CC1 | inactive: -29.4% |
| COc1ccc(C(=O)c2c(N)c(C(=O)Nc3cccc(OC)c3)c3ccccn23)cc1 | inactive: -13% |
| Cc1c(C(=O)N(C)C)sc2c1c(=O)n(-c1ccc(Cl)cc1)c(=O)n2CC(=O)C(C)(C)C | inactive: -1.53% |
| Cc1ccc(NC(=O)Cn2nc(N3CCN(c4ccccc4)CC3)ccc2=O)cc1F | inactive: 0% |
| COc1ccc(-n2c(=O)c3sc4ccccc4c3n(Cc3ccccc3C)c2=O)cc1OC | inactive: -9.11% |
| CCC1CCCCN1S(=O)(=O)c1cc2c3c(c1)CC(=O)N3CCC2 (configuration not stated) | inactive: -25% |
| COc1ccc(S(=O)(=O)N2Cc3ccccc3CC2C(=O)Nc2ccc(C)cc2C)cc1OC (configuration not stated) | inactive: -25% |
| CCOC(=O)c1c(C)[nH]c(C)c1S(=O)(=O)N1CCC(C(=O)NCc2cccc(OC)c2)CC1 | inactive: -10.7% |
| CCC(C(=O)O)n1ccc2cc(S(=O)(=O)N3CCCCC3)ccc21 (configuration not stated) | inactive: -10.7% |
| CC(=O)c1ccc(NC(=O)CCc2c(C)nn(-c3ccc(N4CCOCC4)nn3)c2C)cc1 | inactive: 10.4% |
| Cc1cc(C)c(S(=O)(=O)NCCc2cc3ccc(C)c(C)c3[nH]c2=O)c(C)c1 | inactive: -10.6% |
| O=c1c2sc3ccccc3c2n(Cc2cccc(Cl)c2)c(=O)n1Cc1ccco1 | inactive: -25.3% |
| Cc1cc(C)cc(-n2c(C)nc3cc(C(=O)O)ccc32)c1 | inactive: -3.85% |
| COc1ccc(-c2noc(-c3ccc(NCc4cccnc4)c([N+](=O)[O-])c3)n2)cc1OC | inactive: 0.292% |
| Cc1cccc(OCc2nc(CC(=O)Nc3ccc(C)c(C)c3)cs2)c1 | inactive: -14.4% |
| CCCn1c(CN2CCN(c3ccc(OC)cc3)CC2)nc2c1c(=O)[nH]c(=O)n2C | inactive: -12% |
| COc1cc(-c2cc3n(C)c(C)c(CCC(=O)O)c(=O)n3n2)cc(OC)c1OC | inactive: 1.3% |
| Cc1cc2oc(C(=O)Nc3ccc(S(=O)(=O)N(C)Cc4ccccc4)cc3)cc(=O)c2cc1C | inactive: -21.7% |
| CC(C)CC(=O)Nc1nnc(S(=O)(=O)N(CC(C)C)c2ccccc2)s1 | inactive: -12.3% |
| Cc1ccc(CNC(=O)CCC(=O)N2CC3CCCN3c3ccccc32)cc1 (configuration not stated) | inactive: 0.24% |
| Cn1c(=O)c2c(ncn2CC2OCCO2)n(C)c1=O | inactive: -1.85% |
| CCc1ccccc1N1CC(c2nc3ccccc3n2CCCOc2ccc(Cl)cc2)CC1=O (configuration not stated) | inactive: 16% |
| CCOc1ccccc1NC(=O)Cn1c(=O)n(CCC(=O)NCc2ccc3c(c2)OCO3)c(=O)c2ccccc21 | inactive: 1.06% |

| Structure (SMILES) | activity change, negative = inhibition |
| --- | --- |
| COc1cc(OC)c(NC(=O)c2csc3c2CCC(C)C3)cc1Cl (configuration not stated) | inactive: 1.99% |
| COc1ccccc1CNC(=O)c1cc2cc3ccc(Cl)cc3nc2o1 | inactive: 0.224% |
| COc1ccc(CCNC(=O)CCc2c(C)nc3c(c(C)nn3-c3ccc(C)c(C)c3)c2C)cc1OC | inactive: -15.1% |
| COc1ccccc1N1CCN(c2ccc(NC(=O)c3ccc(C)cc3)cc2C(=O)O)CC1 | inactive: -19.8% |
| Cc1c(CNC2CCCCC2)c(C(=O)O)c(C)n1Cc1c(F)cccc1Cl | inactive: -10.7% |
| Cc1ccc(NC(=O)CCCn2c(=O)c3cccn3c3ccccc32)c(Cl)c1 | inactive: 28.9% |
| O=C(CCOc1ccccc1)N(Cc1cccnc1)c1nc2c(F)cc(F)cc2s1 | inactive: -25.3% |
| COc1cc(OC)c(NC(=O)N2CCSc3ccccc32)cc1Cl | inactive: -27.5% |
| COc1ccc(CNC(=O)c2cnc3sc(N4CCOCC4)nn3c2=O)cc1 | inactive: 1.24% |
| COc1ccc(C(=O)Nc2cc3c(cc2C(=O)c2ccccc2Cl)OCCO3)cc1 | inactive: -11.8% |
| O=C(CSC1=Nc2ccccc2C2=NC(CCC(=O)NC3CCCCC3)C(=O)N12)Nc1cccc(C(F)(F)F)c1 (configuration not stated) | inactive: -30.6% |
| CCOc1ccc(NC(=O)CCc2c(C)nc3nc(C)nn3c2C)cc1 | inactive: 12.9% |
| CCOC(=O)c1c(C)oc2nc(C)nc(NCCCN3CCN(c4ccccc4)CC3)c12 | inactive: -12.3% |
| COC(=O)C(CCSC)NC(=O)C1CCN(c2ncnc3c2nc2n3CCCCC2)CC1 (configuration not stated) | inactive: 10.8% |
| Fc1ccc(-n2ncc3c(NC4CCCCCC4)ncnc32)cc1 | inactive: 14% |
| CCNC(=O)CC1C(=O)N(c2ccc(F)cc2)C(=O)N1CCOC (configuration not stated) | inactive: -11.3% |
| COc1ccccc1CNC(=O)c1ccc(Cn2c(SCc3ccccc3)nc3cccnc32)cc1 | inactive: -14.1% |
| CCOc1ccc(C(=O)N2CCC(c3nnc(-c4ccccc4OC)o3)CC2)cc1 | inactive: 2.96% |
| CCCCCCCC(=O)OCC(COC(=O)CCCCCCC)OC(=O)CCCCCCC | inactive: -4.02% |
| O=C(CCc1ccccc1)NCc1nc2cccnc2n1Cc1ccc(F)cc1 | inactive: -9.14% |
| CCOC(=O)N1CCc2c(sc3c2c(=O)n(-c2ccccc2)c(=O)n3CC(=O)Nc2ccc(OC)cc2OC)C1 | inactive: -5.17% |
| COc1ccc(NC(=O)CN2CCN(Cc3ccccc3)S2(=O)=O)c(OC)c1 | inactive: -1.31% |
| CCOc1ccc(OCC)c(NC(=O)c2cc(S(=O)(=O)N3CCCC3)cn2C)c1 | inactive: -7.37% |
